# Test results from PubChem BioAssay AID463173 (ICCB-Longwood Screening Facility, Harvard Medical School, 2010).
# The whole screen tested about 52,000 compounds, of which about 1,700 (3.3%) were called active. No stated cut-off is given here; in the data, active means survival mostly below about 52% (no sharp cut-off); inactive means mostly above about 56%. The list shows a part of the results.
# System: Wild type
# Test: S. aureus survival, RN4220 and DeltatarO strains – OD600, teichoic acid synthesis inhibitors, primary screen (AID 463173)
# Settings: S. aureus RN4220 wild type/DeltatarO growth, OD600, 18 h, hits give low values, screened at 18.75 µg/mL (by protocol)
row,SMILES,survival
1,COCCNC(=O)CSc1nc(-c2ccccc2)[nH]c1-c1ccc(OC)cc1,inactive: 74%
2,CCOC(=O)c1c(S(=O)(=O)N2CCC(C(=O)Nc3ccc(C)cc3C)CC2)c(C)n(C)c1C,inactive: 69%
3,N#Cc1nc(-c2ccccc2)oc1NCCCn1ccnc1,inactive: 92%
4,Cc1cc(C)cc(NC(=O)c2cnc3sc(N4CCCC4)nn3c2=O)c1,inactive: 73%
5,CCc1ccccc1NC(=O)c1nnn(Cc2ccc(Cl)cc2)c1N,inactive: 85%
6,COc1cccc(-n2c(SCC(=O)Nc3nnc(C)s3)nc3c([nH]c4ccccc43)c2=O)c1,inactive: 47%
7,Fc1ccc2[nH]c(-c3cccs3)cc2c1,inactive: 45%
8,CC(C)Cn1c(=O)c2sccc2n2c(CCCC(=O)N3CCN(c4ccc(F)cc4)CC3)nnc12,inactive: 109%
9,Cc1cc(CN2CCN(c3cccc(C)c3C)CC2)cs1,inactive: 92%
10,CCOc1ccc(NC(=O)C2CCCN(S(=O)(=O)c3c(C)noc3/C=C/N(C)C)C2)cc1 (stereo unspecified),inactive: 87%
11,CCOC(=O)C1=C(CN2CCN(c3ccc(OC)cc3)CC2)NC(=O)NC1c1ccc(Cl)cc1 (stereo unspecified),inactive: 68%
12,O=C(Nc1cccc(C(F)(F)F)c1)c1cc2nc(-c3ccc4c(c3)OCO4)cc(C(F)(F)F)n2n1,inactive: 65%
13,C=CCC(c1ccccc1)N(C(C)=O)c1ccco1 (stereo unspecified),inactive: 99%
14,Cc1ccc(-c2nc(CSc3nncn4c3cc3occc34)c(C)o2)cc1,inactive: 92%
15,NCCc1nc2cccnc2n1-c1ccccc1,inactive: 100%
16,Cc1ccc(Cn2cc(C(=O)c3ccc4c(c3)OCO4)c(=O)c3cc(C)ccc32)cc1,inactive: 81%
17,COc1ccc(C)cc1NC(=O)N1CC(C)Sc2ccccc21 (stereo unspecified),inactive: 66%
18,Cc1ccc(OCC(=O)NCC2(N(C)C)CCCCC2)cc1C,inactive: 89%
19,Cc1ccc(C)c(NC(=O)Cn2c(=O)n(-c3ccc(CC(=O)NCC4CCCO4)cc3)c(=O)c3ccccc32)c1 (stereo unspecified),inactive: 102%
20,Cc1ccc(NC(=O)c2c(C)nc3sc(C(=O)Nc4ccc(F)cc4)c(N)c3c2-c2ccc(C)o2)c(C)c1,inactive: 79%
21,Cc1ccc(CNc2oc(-c3ccc(COc4ccc(C)cc4)o3)nc2C#N)cc1,inactive: 92%
22,CCCOc1ccc(C(=O)NCC2OCCc3ccccc32)cc1 (stereo unspecified),inactive: 74%
23,CC1CN(C(=O)CCC(=O)Nc2cc(F)ccc2F)c2ccccc2S1 (stereo unspecified),inactive: 69%

row,SMILES,survival
1,COc1ccc(-n2c(SCC(=O)N3CCc4ccccc43)nc3c([nH]c4ccccc43)c2=O)cc1,inactive: 81%
2,CCCc1nc2ccccc2n1CC(O)COc1ccc(C(=O)OC)cc1 (stereo unspecified),inactive: 77%
3,CCOC(=O)C1CCCN(C(=O)Cn2ncc3c(C)n(Cc4ccccc4Cl)c(C)c3c2=O)C1 (stereo unspecified),inactive: 118%
4,CCc1ccc(CNC(=O)c2cc3ccccn3n2)cc1,inactive: 113%
5,COCCCN1C(=O)c2ccccc2CC1(C)C(=O)NC1CCCCC1 (stereo unspecified),inactive: 88%
6,COc1ccc(C2C(C(=O)Nc3ccc(Cl)cc3)=C(C)Nc3nc(SCc4cccc(C)c4)nn32)cc1OC (stereo unspecified),inactive: 81%
7,CCC1CCCCN1S(=O)(=O)c1ccc(C(=O)Nc2sc3c(c2C(N)=O)CCC3)cc1 (stereo unspecified),inactive: 74%
8,O=C(CSc1nnc(-c2ccccc2F)o1)Nc1cccc(C(F)(F)F)c1,inactive: 60%
9,O=C(Nc1ccc(Cl)cc1F)c1cnc2sc(N3CCOCC3)nn2c1=O,inactive: 76%
10,Cc1ccc2nc(NC(=O)CSc3nccn3-c3ccc(Cl)cc3)sc2c1,inactive: 74%
11,CC(C)(C)OC(=O)N1CCC(c2c(C(=O)N3CCN(c4ccccn4)CC3)cnn2-c2ccccc2)CC1,inactive: 72%
12,COc1ccc(-c2nc(C)c(CCNC(=O)c3cccs3)s2)cc1OC,inactive: 69%
13,COc1ccccc1CNc1cc(C)nc2nc(-c3ccc(C)cc3)nn12,inactive: 92%
14,O=C(c1ccccc1)N1CCN(C2CCCCC2)CC1,inactive: 108%
15,COCCNC(=O)Cn1c(=O)n(CCCCCC(=O)NCc2ccccc2Cl)c(=O)c2sccc21,inactive: 87%
16,c1ccc(-c2noc(-c3cccnc3NCc3ccco3)n2)cc1,inactive: 81%
17,Cc1cccc(Cn2c(SCc3ccc(C(=O)NCc4ccccc4F)cc3)nc3ccncc32)c1,inactive: 80%
18,Cc1ccc(NC(=O)Cn2c(=O)oc3cc(S(=O)(=O)N4CCCCC4)ccc32)c(Cl)c1,inactive: 106%
19,CCN(CC)CCCNC(=O)CCCn1ncn2c(cc3occc32)c1=O,inactive: 85%
20,CC1CCCCN1C(=O)Cn1ncc2c3ccccc3n(Cc3ccccc3F)c2c1=O (stereo unspecified),inactive: 26%
21,CC(C)(C)C1CCc2c(sc3nc(-c4cc5ccccc5oc4=O)[nH]c(=O)c23)C1 (stereo unspecified),inactive: 81%
22,Cc1c(-c2cccc(NC(=O)Nc3ccc(Cl)cc3)c2)nc2ncccn12,active: -4%
23,COc1ccccc1-c1noc(-c2ccc(NC3CCCCC3)c([N+](=O)[O-])c2)n1,inactive: 86%

row,SMILES,survival
1,COc1ccc(CN(C(=O)c2cc3ccccc3oc2=O)C2CCS(=O)(=O)C2)cc1OC (stereo unspecified),inactive: 66%
2,CCCCN(CCCNC(=O)CN1N=C(c2ccc(C)cc2)CCC1=O)c1ccccc1,inactive: 101%
3,COc1cccc(NC(=O)CCc2nc3c(C)nn(-c4ccc(C)cc4)c3n(C)c2=O)c1,inactive: 72%
4,Cc1ccc2c(c1)-c1c(cnn1CC(=O)N1CCN(c3ccccc3F)CC1)CO2,inactive: 77%
5,COCCCNC(=O)c1cnc2sc(N3CCCCCC3)nn2c1=O,inactive: 69%
6,CCSc1nc2c(c(=O)[nH]c(=O)n2C)n1CC,inactive: 98%
7,O=c1c(=O)n(Cc2ccc(Cl)cc2)ccn1Cc1ccc(F)cc1,inactive: 90%
8,Cc1ccc(-c2nc(CNC(=O)Nc3ccccc3)c(C)o2)cc1,inactive: 68%
9,COc1ccc(-c2cn3cccnc3n2)cc1NC(=O)Cc1ccccc1,inactive: 99%
10,COc1cccc(OCC(=O)NCCS(=O)(=O)N2CCN(c3ccccc3F)CC2)c1,inactive: 85%
11,Cc1oc2ncn(CC(C)C)c(=O)c2c1C(=O)NCCc1ccccc1,inactive: 72%
12,Cc1cc(C)n2c(Nc3ccc(C(C)C)cc3)c(-c3ccsc3)nc2n1,inactive: 60%
13,CCc1nc2cccnc2n1-c1ccc(CC(=O)Nc2c(C)cccc2C)cc1,inactive: 80%
14,CCN(CC)C(=O)CSc1nc2ccsc2c(=O)n1Cc1ccccc1Cl,inactive: 72%
15,Cn1c(=O)n(C)c2cc(/C=C(/C#N)C(=O)NCc3ccco3)ccc21,inactive: 109%
16,CCc1ccc(NC(=O)CSc2nc3c([nH]c4ccccc43)c(=O)n2-c2cccc(OC)c2)cc1,inactive: 99%
17,CCOC(=O)C1=C(C)OC(N)=C(C(=O)OCC)C1c1ccncc1 (stereo unspecified),inactive: 103%
18,O=C(Oc1ccccc1-c1nc(-c2ccccc2)no1)c1ccccc1,inactive: 100%
19,COc1cc(C)ccc1OCCSc1nc2ccc(NC(C)=O)cc2s1,inactive: 73%
20,CCCCCn1c(=O)c2c(nc3n2CCN3c2ccc(Br)cc2)n(C)c1=O,inactive: 85%
21,CN1C(=O)/C(=C2/Sc3ccccc3N2C)SC1=NC1CCCCC1,inactive: 113%
22,O=C(CN1CCC(n2nnc3cc(F)ccc32)CC1)NCCc1ccccc1,inactive: 97%
23,CCOc1ccc(NC(=O)CSc2nc(=O)[nH]c3c2CCC3)cc1,inactive: 78%

row,SMILES,survival
1,CCC(Sc1nnc2c3ccccc3n(C)c2n1)C(=O)Nc1nnc(C(C)C)s1 (stereo unspecified),inactive: 61%
2,CCC1CN(C(=O)N2CCC(C(=O)N3CCN(c4cc(C)ccc4C)CC3)CC2)c2ccccc2O1 (stereo unspecified),inactive: 53%
3,COCCN(C(=O)C1CC1)c1nnc(-c2cccc(C)c2)s1,inactive: 107%
4,COc1ccc(-c2cc3ccc(O)c(CN4CCCC4)c3oc2=O)cc1OC,inactive: 135%
5,Cc1ccc(C)c(CNC(=O)c2sc3ncnc(N(C)C4CCCCC4)c3c2C)c1,inactive: 82%
6,Cc1cc(F)ccc1NC(=O)CCSc1nc(-c2ccco2)cc(C(F)(F)F)n1,inactive: 74%
7,COC(=O)COc1ccc(Oc2nc(NC(C)(C)C)nc(N(C)C)n2)nn1,inactive: 85%
8,CCCCCCSc1ncc(C#N)c(N)n1,inactive: 119%
9,CCOC(=O)c1c(C)c(-c2ccccc2)n(CC(=O)Nc2cccc(C)c2C)c1C,inactive: 98%
10,COc1ccc(C(=O)NCC(c2ccc3c(c2)OCO3)N2CCOCC2)cc1OC (stereo unspecified),inactive: 65%
11,COc1ccc(CNC(=O)c2cn(-c3cccc(OC)c3)c(=O)c3ccccc23)cc1,inactive: 82%
12,Cc1ccc(C(=O)NC2(C(F)(F)F)N=C(c3ccccc3)N(C3CCCCC3)C2=O)cc1 (stereo unspecified),inactive: 70%
13,Cc1ccc2nc(N(Cc3cccnc3)C(=O)CCOc3ccccc3)sc2c1,inactive: 72%
14,Cc1cccc(C(=O)N2CCc3cc(CNS(=O)(=O)c4cccs4)ccc32)c1,inactive: 71%
15,CCc1cc2c(cc3c(=O)n(CC(=O)NCCOC)nc(CC)n32)s1,inactive: 70%
16,CC(=O)Nc1ccc(Nc2ncnc3sc4c(c23)CCCC4)cc1,inactive: 71%
17,CCn1c(CC2C(=O)N(C)c3ccc(Br)cc32)nc2ccccc2c1=O (stereo unspecified),inactive: 80%
18,Cn1c(=O)cc(SCC(=O)N2CCN(c3ccccc3)CC2)c2ccccc21,inactive: 76%
19,COc1cc(OC)c(NC(=O)N2CC=C(c3c[nH]c4ccccc34)CC2)cc1Cl,inactive: 70%
20,COc1cccc(C(=O)Nc2ccc(C(=O)OCc3cc(=O)n4nc(C5CC5)sc4n3)cc2)c1,inactive: 63%
21,COc1ccccc1NC(=O)c1ccccc1C(=O)O,inactive: 109%
22,COc1ccccc1OCc1nc(-c2cccc(C)c2)no1,active: 0%
